The whole screen tested about 48,000 compounds, of which about 450 (0.94%) were called active. About 19% were inconclusive and are not listed. Calls come from the whole dose curve; as a rule, active = well fitted inhibition curve with a large enough effect; inconclusive = small, poorly fitted or top-dose-only effect; inactive = no such curve, though single readings can be large or run the other way. The list shows a part of the results.
experiment: Primary qHTS for Identification of Small Molecule Inhibitors of Huntingtin Promoter Activity; settings: HEK293 HTT promoter firefly luciferase reporter (activity 0% = vehicle and -100% = no light), 24 h; series mostly up to 57.5 µM; activity change, negative = inhibition: at the top concentration; note: nearly all actives have a fitted effect of over 50% in size
Method in brief: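 Luminescence was read after Dual-Glo reagent and a 10 min room-temperature incubation. Values were normalized to vehicle (0% activity) and zero RLU (-100% activity). Reporter HEK293 cells had been exposed to compounds (up to 57.5 uM final) for 24 h.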
Potency is the fitted concentration of half-maximal effect.

Activity change, negative = inhibition, inactive:
Cn1c(=O)c2[nH]c(Br)nc2n(C)c1=O 5.79%
CCOC(=O)c1c(C)[nH]c(C)c1S(=O)(=O)N(C)CC(=O)N1CCN(c2cccc(C)c2C)CC1 -39.8%
COc1ccccc1C(=O)Nc1ccccc1C(=O)OCc1cc(=O)n2c(C)csc2n1 -16.8%
CCOC(=O)c1c(C)oc2nc(C)nc(NCCCN3CCN(c4ccccc4OC)CC3)c12 -1.18%
Cc1nn(C)c2c1c(-c1ccccc1)cc(=O)n2Cc1ccc(Br)cc1F 8.83%
Cc1ccc(OCC(=O)N(Cc2ccc(N(C)C)cc2)CC2CCCO2)cc1C (stereo not given) -7.91%
COc1ccc(-c2cc(C(F)(F)F)nc(SCC(=O)N3CCCCC3)n2)cc1 -7.55%
CCCC(=O)c1cc2c(cc1NC(=O)c1ccccc1F)OCCO2 -13.1%
CCCCOc1ccc(NC(=O)c2cc3c(n(-c4ccc(Cl)cc4)c2=O)CCCC3=O)cc1 1.64%
Cc1ccc(CNC(=O)CCCn2c(=O)c3ccccc3n(Cc3ccccc3Cl)c2=O)cc1 -6.46%
COc1cccc(CNC(=O)C2CCCN(S(=O)(=O)c3ccc4c(ccn4C)c3)C2)c1OC (stereo not given) -20.1%
O=C(Cn1c(=O)n(CCCS(=O)(=O)C2CCCCC2)c(=O)c2ccccc21)Nc1ccccc1F -5.52%
Cc1nn2c3c(cnc2c1-c1ccc(F)cc1)C(=O)CC(c1ccccc1)C3 (stereo not given) -6.06%
CC(=O)Nc1ccc(NC(=O)CC(C)n2ccc(C)n2)cc1 (stereo not given) -3.3%
CCCN1CCN(CCNC(=O)Nc2cc(Cl)c(OC)cc2OC)CC1 -14.9%
Cc1cc(C)c(-c2csc(-c3cc4ccccc4oc3=O)n2)cc1C -9.43% [at 11.5 µM]
O=C(Nc1nnc(N2CCCC2)s1)Nc1cc(F)ccc1F 10.3%
O=C(NCCc1ccccc1)c1c2c(nc3ccccc13)C(=O)N(C1CCCCC1)C2 18%
Cc1oc(-c2cccc(Cl)c2)nc1CN1CCC(C(=O)NCc2ccc(F)cc2)CC1 4.92%
C=CCOc1cc(Cl)ccc1C(=O)NCCN(CC)CC -5.76%
O=C(COCCOCCOCC(=O)Nc1c(I)cc(I)c(C(=O)O)c1I)Nc1c(I)cc(I)c(C(=O)O)c1I -1.62%
COc1cccc(NC(=O)Cc2ccc(NC(=O)N3CCCCc4ccccc43)cc2)c1 -19.2%
CCCN1C(=O)c2[nH]nc(-c3ccc(F)cc3)c2C1c1ccc(O)c(OCC)c1 (stereo not given) -2.07%
CCOC(=O)c1c(-c2ccccc2)oc2ccc(OCc3ccc(C)cc3)cc12 -9.36%
Cc1ccc(N2C(=O)CSC23C(=O)Nc2ccccc23)cc1F (stereo not given) -21.1%
Cc1cccc(-c2nc3c4ccccc4n(CC(=O)Nc4cc(F)ccc4F)c(=O)n3n2)c1 0%
COc1ccc(C(=O)Cn2c(=O)n3nc(CCn4nc(C)cc4C)nc3c3cc(OC)c(OC)cc32)cc1 -7.56%
COc1ccc(S(=O)(=O)Nc2c(C)n(C)n(-c3ccccc3)c2=O)cc1Br -13.4% [at 11.5 µM]
COc1ccccc1N1CCN(C(=O)CSc2nc(C)cc(=O)[nH]2)CC1 -14%
CC(C)Nc1cc(N2CCN(C3CCCCC3)CC2)c2noc3c2c1C(=O)c1ccccc1-3 -9.16%
CCOc1ccc(CNC(=O)C(C)n2ncn3cccc3c2=O)cc1 (stereo not given) -11.4%
CCOC(=O)c1[nH]c(C)c(CCC(=O)Nc2ccc(C)cc2Cl)c1C -8.3%
CCOc1ccccc1CNC(=O)C1=C(C)C(=O)OC12CCN(C(C)=O)CC2 -0.88%
COc1cc(NC(=O)CN2CCCN(Cc3cccc(F)c3)S2(=O)=O)cc(OC)c1 -1.82%
CCOC(=O)c1c(C)oc2nc(C)nc(NCCc3ccc(C)cc3)c12 -4.91%
CC1=C(C(=O)N2CCCCC2)C(c2ccc(Cl)cc2)n2c(nc3ccccc32)N1 (stereo not given) -4.81%
Cc1cccc(C(=O)Nc2ccc(N3CC=C(c4ccccc4C)CC3)c(C(=O)O)c2)c1 0.865%
Cc1ccc(CN2C(=O)c3ccccc3Sc3ccc(C(=O)N4CCOCC4)cc32)cc1 -27.8%
Cc1ccc(NC(=O)c2oc3ccc(S(=O)(=O)N(C)C4CCCCC4)cc3c2C)c(C)c1 -12.4%
COc1ccc(-c2nc(C)c(CCNC(=O)c3ccc(C(F)(F)F)cc3)s2)cc1OC -0.789%
CCCNC(=O)c1cc2n(n1)CCCN(Cc1ccc(C)cc1)C2=O -21%
O=C(COc1ccccc1F)Nc1ccc2nc(SCC(=O)N3CCOCC3)sc2c1 -27.5%
O=S(=O)(c1ccccc1)c1nc(-c2ccc(F)cc2)oc1NCc1ccccc1 -15.7%
COc1ccc(CNC(=O)CCCc2nnc3n(C(C)C)c(=O)c4sccc4n23)cc1 -24.8%
Cc1ccc(S(=O)(=O)Nc2cc(Cl)c3oc4c(c3c2)CCCC4)cc1 -21.6%
COc1ccccc1CNC(=O)CCS(=O)(=O)c1ccc2c(c1)oc(=O)n2C -5.56%
CCOC(=O)c1cccc(NC(=O)CSc2ncc3c(n2)-c2ccc(Cl)cc2N(Cc2ccccc2)S3(=O)=O)c1 -16.7%
Cc1c(-c2nsc(NC(=O)c3cccs3)n2)nnn1-c1ccc(F)cc1 40.4%
CCOc1ccc(CNC(=O)CSc2c3c(nc4cc(Cl)ccc24)CCCC3)cc1 -20.4%
CCN(CC)S(=O)(=O)c1ccc2c(c1)N(CC(=O)Nc1c(C)cccc1C)C(=O)C1CCCN21 (stereo not given) -17.3%
Cc1c(C)n(Cc2ccccc2)c2ccc(C(=O)N3CCN(c4ccccc4)CC3)cc12 2.24%
Cc1ccc(OCC(=O)NCC(=O)OCc2cc(=O)n3nc(C(C)C)sc3n2)cc1 -25.8%
CC(C)Oc1ccc(C(=O)N(Cc2ccc(N(C)C)cc2)Cc2ccco2)cc1 -24.8%
CC(=O)O[C@H]1C[C@@H]2CC[C@H]3[C@H]4C[C@H]([N+]5(C)CCCCC5)[C@@H](OC(C)=O)[C@@]4(C)CC[C@@H]3[C@@]2(C)C[C@H]1[N+]1(C)CCCCC1 -0.329%
CCN(C(=O)Cn1c(=O)oc2cc(S(=O)(=O)N3CCCCCC3)ccc21)c1cccc(C)c1 -12.6%
Cc1cccc(OC(=O)c2snnc2C)c1 -2.63%
Cc1cccc(C)c1Nc1c(-c2ccccn2)nc2ccc(Cl)cn12 -8.36%
Cn1cc(S(=O)(=O)N2CCCCCC2)cc1C(=O)NCc1ccc(F)cc1 -5.9%

Potency, active:
COc1ccc(C(=O)NC(c2ccccc2Cl)c2cc(Cl)c3cccnc3c2O)cc1 (stereo not given) 8.91 µM
COc1ccc(-c2nc(CSCC(=O)N3CCN(c4ccccc4F)CC3)c(C)o2)cc1 28.2 µM
